Assay results published in PubChem BioAssay AID2147 (National Center for Advancing Translational Sciences (NCATS), 2009).
Among all 230,000 compounds or so, about 3,600 (1.6%) were called active. The inconclusive results got no clear call from the source; some entries with a clear call stand among them for comparison. Calls come from the whole dose curve; as a rule, active = well fitted inhibition curve with a large enough effect (not every such curve was filed as active); inconclusive = small, poorly fitted or top-dose-only effect, or another doubt; inactive = no such curve, though single readings can be large or run the other way. Where the call is inconclusive, the potency comes from a doubtful curve fit.

Biological target: Lysine-specific demethylase 4E (Homo sapiens) (UniProt B2RXH2)
Sequence of UniProt B2RXH2 (B2RXH2 whole entry, looked up, the tested form may be a part): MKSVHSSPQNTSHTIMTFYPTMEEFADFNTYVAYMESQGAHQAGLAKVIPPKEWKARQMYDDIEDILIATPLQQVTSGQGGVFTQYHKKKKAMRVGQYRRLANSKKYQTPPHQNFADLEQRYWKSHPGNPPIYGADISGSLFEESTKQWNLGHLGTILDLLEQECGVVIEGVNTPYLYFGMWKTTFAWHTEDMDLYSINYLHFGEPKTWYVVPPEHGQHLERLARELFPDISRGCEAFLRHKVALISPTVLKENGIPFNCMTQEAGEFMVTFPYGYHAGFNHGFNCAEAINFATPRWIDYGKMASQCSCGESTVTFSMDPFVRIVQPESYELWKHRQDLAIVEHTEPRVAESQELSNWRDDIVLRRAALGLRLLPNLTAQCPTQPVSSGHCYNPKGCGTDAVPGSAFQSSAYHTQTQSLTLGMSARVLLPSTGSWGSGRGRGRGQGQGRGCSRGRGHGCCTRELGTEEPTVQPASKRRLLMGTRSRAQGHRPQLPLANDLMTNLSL
Assay: qHTS Assay for Inhibitors of Human Jumonji Domain Containing 2E (JMJD2E)
Settings: JMJD2E catalytic domain, FDH-coupled NADH fluorescence (FDH is formaldehyde dehydrogenase); series mostly up to 57.1 µM; activity change, negative = inhibition: at the top concentration
Note: nearly all actives have a fitted effect of over 50% in size.
Potency is the fitted concentration of half-maximal effect; tags give direction and shape of the fitted curve.
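Throughout, for activity change, negative = inhibition: 0% = wells with enzyme and -100% = buffer wells without enzyme.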

SMILES | activity change, negative = inhibition | Potency
COc1ccc(CNC(=O)c2sc3nc4c(c(C(F)(F)F)c3c2N)CCC4)cc1OC | inactive: 4.38% | 
COc1ccc2cc(C(=O)C3CCCN(C(=O)CCc4cnn(C)c4)C3)ccc2c1 (configuration not stated) |  | inconclusive: 28.2 µM [inhibitor, partial curve]
Cc1ccc(Cn2ccc(-c3cnc(-c4ccccc4)s3)n2)cc1 |  | inconclusive: 28.2 µM [inhibitor, partial curve]
O=C(NCc1cccs1)c1cccnc1C(=O)O |  | inconclusive: 39.8 µM [inhibitor, single point]
CCOC(=O)c1cc(C#N)c(N2CCN(C(=O)c3cccc(C(F)(F)F)c3)CC2)nc1C(F)(F)F |  | inconclusive: 35.5 µM [inhibitor, single point]
COc1cccc(NC(=O)CSC2=C(C#N)C(c3ccco3)C3=C(CCCC3=O)N2)c1 (configuration not stated) |  | inconclusive: 25.1 µM [inhibitor, single point]
CCCCNc1oc(-c2cccs2)nc1S(=O)(=O)c1ccccc1 |  | inconclusive: 35.5 µM [inhibitor, single point]
O=C(CSc1ccc2nnc(-c3ccccc3)n2n1)NCc1ccco1 | inactive: -7.35% | 
Cn1ccnc1C(=O)c1cccc([N+](=O)[O-])c1 | inactive: -0.546% | 
C/C(=N\NC(=O)C12CCC(C)(C(=O)O1)C2(C)C)c1ccccc1O (configuration not stated) |  | active: 8.91 µM
Cc1ccc2nc(-c3ccc(NC(=O)Cc4cccs4)cc3)[nH]c2c1 |  | inconclusive: 31.6 µM [inhibitor, partial curve]
Cc1cc(C)c2[nH]c(=O)c(CN(Cc3ccco3)C(=O)c3cccs3)cc2c1 |  | inconclusive: 14.1 µM [inhibitor, single point]
N#Cc1ccsc1NC(=O)COC(=O)c1ccc2ccccc2c1 |  | inconclusive: 35.5 µM [inhibitor, single point]
Cn1c(=O)[nH]c(=O)c2c1nc(N/N=C/C(Br)=C/c1ccccc1)n2CCO | inactive: -14.1% | 
CC(C)NCCOc1cccc(Br)c1 | inactive: -9.7% | 
CCOc1ccc(C(=O)Nc2cccc(-c3cc4ccccc4oc3=O)c2)cc1[N+](=O)[O-] |  | inconclusive: 25.1 µM [inhibitor, single point]
CCN(CC)CCNC(=O)CCCCn1c(=S)[nH]c2c([nH]c3ccc(OC)cc32)c1=O |  | inconclusive: 31.6 µM [inhibitor, partial curve]
Cc1ccc2cc(CN(C(=O)C3CCCO3)C3CCCCC3)c(=O)[nH]c2c1 (configuration not stated) |  | inconclusive: 35.5 µM [inhibitor, single point]
COc1ccc(-c2coc3cc(O)ccc3c2=O)c(O)c1O |  | active: 11.2 µM
Cc1oc(C(=O)Nc2ccc(C(=O)O)cc2)cc1COc1ccccc1 | inactive: -6.8% | 
Cc1cc(=O)n2c3ccccc3n(CC(O)CN3CCC(C)CC3)c2c1C#N (configuration not stated) |  | inconclusive: 31.6 µM [inhibitor, single point]
CN1CCc2nc(NC(=O)c3cccc(S(=O)(=O)N4CCc5ccccc54)c3)sc2C1 | inactive: -5.34% | 
N=C1C(=O)OCC1c1ccccc1NC(=O)CN1CCCCC1 (configuration not stated) |  | inconclusive: 3.55 µM [inhibitor, partial curve]
COc1cccc(NC(=O)CSc2nc(C)cs2)c1 |  | inconclusive: 35.5 µM [inhibitor, single point]

SMILES | activity change, negative = inhibition | Potency
CCc1nnc(NC(=O)CSc2nnc(-c3cccnc3)n2CC)s1 | inactive: 4.98% | 
CC(C)(C)NC(=O)Cn1c(SCC(=O)N2CCCCCC2)nc2ccccc21 | inactive: -25.9% | 
NC(=O)c1sc2cc(C(F)(F)F)cnc2c1-c1cccs1 |  | inconclusive: 35.5 µM [inhibitor, single point]
C(=C\c1nc(-c2ccccc2)oc1Nc1ccc2ccccc2c1)/c1ccccc1 |  | inconclusive: 6.31 µM [inhibitor, single point]
O=C(NCCN1CCc2ccccc2C1)C1CCN(S(=O)(=O)N2CCCCC2)CC1 | inactive: -6.71% | 
CCc1ccc(C2=NNC(=Nc3c(C)n(C)n(-c4ccccc4)c3=O)SC2)cc1 | inactive: 6.05% | 
Cc1cc2oc(=O)cc(COC(=O)c3n[nH]c4ccccc34)c2cc1C |  | inconclusive: 25.1 µM [inhibitor, single point]
COCCOC(=O)C(C#N)c1nc2ccccc2nc1N1CCCC1 (configuration not stated) |  | inconclusive: 39.8 µM [inhibitor, single point]
COCC(=O)Nc1nc2n(n1)C(c1ccccc1Cl)CC(c1ccc(OC)cc1)N2 (configuration not stated) |  | inconclusive: 35.5 µM [inhibitor, partial curve]
CC(=O)c1cccc(NC(=S)NC(=O)c2ccccc2C)c1 | inactive: 5.07% | 
CN(C)S(=O)(=O)c1cccc(NC(=O)COC(=O)c2cccn2C)c1 | inactive: 6.08% | 
O=C(CN(c1ccccn1)S(=O)(=O)c1ccccc1)N/N=C/c1cccc([N+](=O)[O-])c1 |  | inconclusive: 39.8 µM [inhibitor, single point]
CCCCn1nc2cc(C(=O)NCCc3cccs3)ccc2c1OCC |  | inconclusive: 28.2 µM [inhibitor, partial curve]
COc1ccc(NS(=O)(=O)c2ccc(SC)cc2)c(OC)c1 | inactive: 2.14% | 
COc1ccc(/C=N/n2cnn(Cc3ccccc3Cl)c2=S)cc1 | inactive: -16.6% | 
COc1ccc(C(=O)c2nc3c(n2O)CCCCC3)cc1 |  | inconclusive: 35.5 µM [inhibitor, single point]
CN(C)C(=O)c1cn(-c2ccccc2)nc1-c1cc2ccccc2oc1=O |  | inconclusive: 28.2 µM [inhibitor, partial curve]
C[C@@H](C(=O)N[C@@H](Cc1ccccc1)C(=O)O)n1nnc2ccccc2c1=O | inactive: 1.58% | 
Cc1cccc(C)c1NC(=O)CSCC(=O)c1ccc(O)c(O)c1 |  | active: 28.2 µM
COc1ccc(S(=O)(=O)N2CCC(CN3C(=O)c4cccc5cccc(c45)C3=O)CC2)cc1 | inactive: 9.22% | 
O=C(/C=C/c1ccccc1Cl)Nc1ccncc1 | inactive: -3.62% | 
O=c1cc(CO)oc(C(Nc2ccccn2)c2cccc(F)c2)c1O (configuration not stated) |  | inconclusive: 25.1 µM [inhibitor, single point]
CC(=O)Nc1sc(N/N=C/c2ccc(N(C)C)cc2)nc1-c1ccc(C)cc1 |  | inconclusive: 10 µM [inhibitor, partial curve]
